Measurements from article PMC4695059.
Where two headings read alike, the source gives them in different places. These are yes or no findings as the source states them, for the method shown. In cells and extracts the contact can be indirect. Some binding calls cover weakened binding; strength is not graded here.

Amino acid sequences for entries named in this document (tags omitted).
UniProt Q8IUF8: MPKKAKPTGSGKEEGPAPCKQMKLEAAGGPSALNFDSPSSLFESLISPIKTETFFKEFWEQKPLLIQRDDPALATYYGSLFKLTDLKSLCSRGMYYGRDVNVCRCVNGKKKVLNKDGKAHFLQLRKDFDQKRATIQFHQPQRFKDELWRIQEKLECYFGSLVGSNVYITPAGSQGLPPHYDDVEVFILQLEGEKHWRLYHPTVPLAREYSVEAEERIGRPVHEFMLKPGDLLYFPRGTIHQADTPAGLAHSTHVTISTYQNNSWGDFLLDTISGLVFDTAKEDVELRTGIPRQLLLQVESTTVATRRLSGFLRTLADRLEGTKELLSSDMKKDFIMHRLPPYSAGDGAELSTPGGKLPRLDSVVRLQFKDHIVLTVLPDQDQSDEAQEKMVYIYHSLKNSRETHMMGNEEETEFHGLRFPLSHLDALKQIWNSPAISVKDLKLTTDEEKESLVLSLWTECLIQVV
UniProt Q09028: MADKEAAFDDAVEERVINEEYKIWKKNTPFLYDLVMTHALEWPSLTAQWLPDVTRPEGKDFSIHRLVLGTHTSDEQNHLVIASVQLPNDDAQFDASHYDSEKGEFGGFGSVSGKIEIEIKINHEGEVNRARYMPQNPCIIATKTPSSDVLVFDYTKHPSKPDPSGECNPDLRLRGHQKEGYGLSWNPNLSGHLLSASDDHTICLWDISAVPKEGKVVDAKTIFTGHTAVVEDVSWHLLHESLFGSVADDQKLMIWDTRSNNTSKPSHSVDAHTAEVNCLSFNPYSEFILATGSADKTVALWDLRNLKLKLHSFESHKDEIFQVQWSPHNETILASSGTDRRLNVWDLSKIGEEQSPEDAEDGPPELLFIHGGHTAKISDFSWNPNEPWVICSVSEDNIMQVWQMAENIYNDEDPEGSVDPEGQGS
UniProt P12956: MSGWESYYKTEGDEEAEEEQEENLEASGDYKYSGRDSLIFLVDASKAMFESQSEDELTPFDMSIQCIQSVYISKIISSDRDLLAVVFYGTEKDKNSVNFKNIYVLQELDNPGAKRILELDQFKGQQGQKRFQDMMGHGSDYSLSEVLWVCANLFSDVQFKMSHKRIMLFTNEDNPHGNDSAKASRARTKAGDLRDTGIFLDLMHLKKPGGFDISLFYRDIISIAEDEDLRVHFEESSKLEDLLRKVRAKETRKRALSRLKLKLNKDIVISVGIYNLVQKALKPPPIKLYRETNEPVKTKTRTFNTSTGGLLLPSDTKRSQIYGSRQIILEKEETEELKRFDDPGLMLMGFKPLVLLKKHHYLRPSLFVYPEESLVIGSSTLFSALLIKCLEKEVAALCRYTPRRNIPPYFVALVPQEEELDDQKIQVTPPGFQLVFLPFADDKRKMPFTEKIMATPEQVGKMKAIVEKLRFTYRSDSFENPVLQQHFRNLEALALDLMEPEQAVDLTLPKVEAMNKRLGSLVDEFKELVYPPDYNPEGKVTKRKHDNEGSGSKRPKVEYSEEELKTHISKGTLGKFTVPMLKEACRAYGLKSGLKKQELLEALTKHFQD
UniProt Q9H7E2: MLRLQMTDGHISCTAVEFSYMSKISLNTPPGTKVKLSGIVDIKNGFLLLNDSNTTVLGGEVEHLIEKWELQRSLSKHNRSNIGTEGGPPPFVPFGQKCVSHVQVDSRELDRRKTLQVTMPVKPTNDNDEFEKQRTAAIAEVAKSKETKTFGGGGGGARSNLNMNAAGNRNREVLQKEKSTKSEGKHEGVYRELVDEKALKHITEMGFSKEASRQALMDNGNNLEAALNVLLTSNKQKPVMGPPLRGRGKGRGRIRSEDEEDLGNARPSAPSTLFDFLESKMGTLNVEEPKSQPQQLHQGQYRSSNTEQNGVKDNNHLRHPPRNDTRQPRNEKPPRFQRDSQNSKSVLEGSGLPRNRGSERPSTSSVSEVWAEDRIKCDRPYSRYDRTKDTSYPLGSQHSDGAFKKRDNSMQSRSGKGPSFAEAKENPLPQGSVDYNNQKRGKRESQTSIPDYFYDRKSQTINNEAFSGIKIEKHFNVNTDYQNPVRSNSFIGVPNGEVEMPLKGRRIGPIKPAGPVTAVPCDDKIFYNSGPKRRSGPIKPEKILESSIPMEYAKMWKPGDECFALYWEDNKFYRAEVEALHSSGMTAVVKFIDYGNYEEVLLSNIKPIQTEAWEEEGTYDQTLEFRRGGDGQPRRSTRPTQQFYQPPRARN

What was measured:
Experiment in all cases: co-IP; endogenous proteins from A549 and BEAS-2B lysates (400 μg protein, non-denaturing lysis buffer with 1% Nonidet P-40) immunoprecipitated with antibodies against mdig, XRCC6, RbAp48 (RBBP4), CBX8 or TDRD3 on Protein A/G PLUS-Agarose, 4°C overnight; Western blotting
[1] = molecular target: mineral dust-induced gene (mdig) protein (human (endogenous in A549, BEAS-2B, H929)) (UniProt Q8IUF8)
[2] = molecular target: retinoblastoma-binding protein 4 (RBBP4) (human (endogenous in A549, BEAS-2B)) (UniProt Q09028)
[3] = molecular target: XRCC6 (Ku70) (human (endogenous in A549, BEAS-2B, H929)) (UniProt P12956)
[4] = molecular target: mineral dust-induced gene (mdig) protein (human (endogenous in A549, BEAS-2B, H929)) (UniProt Q8IUF8); remark: listed apart in the source

Molecule | binding [1] | binding [2] | binding [3] | binding [4]
XRCC6 (Ku70) (from UniProt P12956 1-609) | binds | no binding | – | –
mineral dust-induced gene (mdig) protein (from UniProt Q8IUF8 1-465) | – | binds | binds | –
CBX8 (protein, UniProt Q9HC52 1-389) MELSAVGERVFAAEALLKRRIRKGRMEYLVKWKGWSQKYSTWEPEENILDARLLAAFEEREREMELYGPKKRGPKPKTFLLKAQAKAKAKTYEFRSDSARGIRIPYPGRSPQDLASTSRAREGLRNMGLSPPASSTSTSSTCRAEAPRDRDRDRDRDRERDRERERERERERERERERERGTSRVDDKPSSPGDSSKKRGPKPRKELPDPSQRPLGEPSAGLGEYLKGRKLDDTPSGAGKFPAGHSVIQLARRQDSDLVQCGVTSPSSAEATGKLAVDTFPARVIKHRAAFLEAKGQGALDPNGTRVRHGSGPPSSGGGLYRDMGAQGGRPSLIARIPVARILGDPEEESWSPSLTNLEKVVVTDVTSNFLTVTIKESNTDQGFFKEKR | – | – | – | binds

Other lines, results leading:

binding [1] | binding [2] | binding [3] | binding [4] | Molecule
binds weakly | – | – | – | TDRD3 (from UniProt Q9H7E2 1-651)
binds | – | – | – | retinoblastoma-binding protein 4 (RBBP4) (from UniProt Q09028 1-425)
